From article PMC2867326 (Oncogene, 2009)

Target: importin-β (human (endogenous in A549, KB-CP20, …, UniProt Q14974))
Assay: co-IP

UniProt Q14974, sequence (Q14974 whole entry): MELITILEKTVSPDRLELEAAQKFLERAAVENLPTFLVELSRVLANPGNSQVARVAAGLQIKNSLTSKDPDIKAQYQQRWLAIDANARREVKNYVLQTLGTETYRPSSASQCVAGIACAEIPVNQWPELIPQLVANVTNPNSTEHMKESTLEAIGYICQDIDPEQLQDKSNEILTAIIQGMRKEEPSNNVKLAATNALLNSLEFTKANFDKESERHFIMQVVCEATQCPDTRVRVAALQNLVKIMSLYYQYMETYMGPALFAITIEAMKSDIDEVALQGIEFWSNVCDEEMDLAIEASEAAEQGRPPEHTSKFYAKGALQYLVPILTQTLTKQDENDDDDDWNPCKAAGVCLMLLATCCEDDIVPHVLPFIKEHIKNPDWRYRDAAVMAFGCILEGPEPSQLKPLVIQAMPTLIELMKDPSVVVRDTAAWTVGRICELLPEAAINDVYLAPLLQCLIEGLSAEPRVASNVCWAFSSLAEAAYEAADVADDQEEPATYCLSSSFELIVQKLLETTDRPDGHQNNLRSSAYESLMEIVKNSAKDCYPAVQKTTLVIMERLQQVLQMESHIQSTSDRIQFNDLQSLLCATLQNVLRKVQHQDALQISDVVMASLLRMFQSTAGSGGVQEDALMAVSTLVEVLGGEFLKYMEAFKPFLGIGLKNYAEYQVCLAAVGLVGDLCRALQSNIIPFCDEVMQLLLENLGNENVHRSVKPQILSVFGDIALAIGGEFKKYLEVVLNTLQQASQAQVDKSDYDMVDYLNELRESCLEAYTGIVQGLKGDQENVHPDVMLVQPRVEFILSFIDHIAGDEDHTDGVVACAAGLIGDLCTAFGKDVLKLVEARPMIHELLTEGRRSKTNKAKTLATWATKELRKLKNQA

- p53 in the importin β immunoprecipitate, relative to KB-CP20: 5%
B1: p53^420 (endogenous, oxaliplatin-selected KB-OX cell lines) (natural protein)
chain: not shown
